Measured values published in PubChem BioAssay AID686978 (National Center for Advancing Translational Sciences (NCATS), 2013).
Among all 420,000 compounds or so, about 64,000 (15%) were called active. Inconclusive means that the source gave no clear call. Such entries were picked first, then a sample of the others. Calls come from the whole dose curve; as a rule, active = well fitted inhibition curve with a large enough effect; inconclusive = small, poorly fitted or top-dose-only effect; inactive = flat fitted curve, though single readings scatter. Potencies of inconclusive entries are left out as doubtful fits.
Potency is the fitted concentration of half-maximal effect; tags give direction and shape of the fitted curve.

Assay: qHTS for Inhibitors of human tyrosyl-DNA phosphodiesterase 1 (TDP1): qHTS in cells in absence of CPT; note: nearly all actives have a fitted effect of over 55% in size
Details: DT40 Tdp1-/- hTDP1 cells, no CPT, ATP luminescence, 48 h; series mostly up to 46.2 µM
Procedure, shortened: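 Stably hTDP1-transfected Tdp1-null chicken DT40 cells were treated with library compounds minus camptothecin and grown for at least 48 hr at 37 °C, after which cellular ATP was quantified by luminescence.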
In the case of `CC1=C(C#N)C(c2cn(-c3ccccc3)nc2-c2cccs2)C(C#N)=C(C)N1`, the Potency is reported as “inactive”.
With `COc1cc2c(cc1OC)CN(C(=O)C(C)(C)C)CC2` the Potency was “inactive”.
In the case of `COc1cc(NS(=O)(=O)c2ccc3[nH]c4c(c3c2)CCCCCC4)cc(OC)c1`, the Potency is reported as active: 11.6 µM.
With `O=C1CC(C(=O)N2CCOCC2)C2(CCCC2)O1` (stereo not drawn) the Potency was “inactive”.
In the case of `COc1cccc(N2CCN(S(=O)(=O)c3cn(C)cn3)CC2)c1`, the Potency is reported as “inactive”.
With `COc1ccc(Cl)cc1-c1cc(C(=O)NC2CCCCC2)[nH]n1` the Potency was inconclusive [inhibitor, single point].
In the case of `C[C@@H](c1ccccc1)N1Cc2ccccc2Oc2cc(Br)ccc2S1(=O)=O`, the Potency is reported as “inactive”.
With `CN1C2C=C3C(C#N)=C(N)C(C#N)(C#N)[C@@H](c4ccsc4)[C@@H]3C1CC2` (stereo partly drawn) the Potency was inconclusive [inhibitor, single point].
For `CCOC(=O)/C(=N\Nc1ccccc1[N+](=O)[O-])c1csc(Nc2ccccc2)n1`, the Potency was active: 16.4 µM.
For `CS(=O)(=O)Nc1cccc(-c2cc(Nc3ccccc3)ncn2)c1`, the Potency was inconclusive [inhibitor, single point].
For `COCCSc1ccccc1C(=O)Nc1cc([N+](=O)[O-])ccc1OC`, the Potency was inconclusive [inhibitor, single point].
With `Cc1ccccc1-c1nnc2c3ccccc3c(C)nn12` the Potency was inconclusive [inhibitor, single point].
In the case of `CCc1nc(-c2cc(S(=O)(=O)N3CCN(c4ccccc4OC)CC3)ccc2OC)no1`, the Potency is reported as inconclusive [inhibitor, single point].
In the case of `O=[N+]([O-])c1cc(C(F)(F)F)ccc1NC1CCN(Cc2ccccc2)C1` (stereo not drawn), the Potency is reported as “inactive”.
For `Fc1ccc(CN2CCCN(Cc3nc(-c4ccc5c(c4)OCO5)no3)CC2)cc1`, the Potency was inconclusive [inhibitor, single point].
With `CN(C)CCNC(=S)Nc1ccc(F)c(F)c1F` the Potency was “inactive”.
In the case of `CN(C)S(=O)(=O)c1ccc2[nH]cc(/C=C/c3nc4ccccc4c(=O)n3-c3ccccc3)c2c1`, the Potency is reported as active: 5.17 µM.
For `COc1ccc(-c2cc(C(=O)Nc3c(C)nn(Cc4ccc(C)cc4)c3C)no2)cc1OC`, the Potency was “inactive”.
For `CN1/C(=C/C=N/n2cnnc2)C(C)(C)c2ccccc21`, the Potency was active: 23.1 µM.
For `COc1ccc(Cl)cc1NC(=O)CN1C(=O)COc2ccc(S(=O)(=O)NC3CCCC3)cc21`, the Potency was “inactive”.
With `C=CCOC(=O)C1=C(C)N=C2SCCC(=O)N2C1c1cccs1` (stereo not drawn) the Potency was inconclusive [inhibitor, single point].
With `N#Cc1ccc(CN2CCN(C(=O)CN3C(=O)NC4(CCCC4)C3=O)CC2)cc1` the Potency was inconclusive [inhibitor, single point].
For `COc1ccc(NC(=O)CSc2ncccc2C(=O)OC(C)C)cc1OC`, the Potency was active: 11.6 µM.
In the case of `CC(C)CCn1c(CN2CCN(C(=O)c3ccco3)CC2)nc2c1c(=O)n(C)c(=O)n2C`, the Potency is reported as inconclusive [inhibitor, single point].
With `CCN(CC)P(=O)(Nc1cccc(C(F)(F)F)c1)c1ccc(N(C)C)cc1NC(=O)c1ccco1` (stereo not drawn) the Potency was inconclusive [inhibitor, partial curve, poor fit].
For `Cc1sc(NC(=O)C2CC(=O)N(Cc3ccco3)C2)nc1-c1ccccc1` (stereo not drawn), the Potency was inconclusive [inhibitor, single point].
For `CCOC(=O)CSc1nc2ccccc2c(=O)n1C1CCCC1`, the Potency was “inactive”.
With `CCOC(=O)c1cc(-c2ccccc2)n(-c2cccc(C(=O)Nc3ccc(OCC)cc3)c2)c1C` the Potency was inconclusive [inhibitor, single point].
For `COc1ccc(NC(=O)c2cc(-c3ccc(F)cc3OC)n[nH]2)c(OC)c1`, the Potency was active: 14.6 µM.
With `Cc1cc(Cl)c(OCCOCCN2CCC(C)CC2)c(Br)c1` the Potency was active: 16.4 µM.
With `Cc1cccc2c1cnn2C(=O)CCC(=O)NC1CCCCC1` the Potency was inconclusive [inhibitor, single point].
With `COc1cccc(NS(=O)(=O)c2ccc(-c3cc(C)no3)s2)c1` the Potency was active: 23.1 µM.
For `O=C(N/N=C/c1ccc([N+](=O)[O-])cc1)c1ccc2nc[nH]c2c1`, the Potency was inconclusive [inhibitor, single point].
With `O=[N+]([O-])c1cc(C(F)(F)F)ccc1NCCc1ccccn1` the Potency was inconclusive [inhibitor, full curve, poor fit].
In the case of `CC(=O)N1CCCc2cc(S(=O)(=O)N3CCC(C(=O)NCc4cccc(C)c4)CC3)ccc21`, the Potency is reported as inconclusive [inhibitor, partial curve, poor fit].
For `COc1ccc(OCC(=O)N2CCCC(CO)(CCOc3ccccc3)C2)cc1` (stereo not drawn), the Potency was “inactive”.
For `COc1ccc(NC(=O)C(NS(=O)(=O)c2cccs2)C(C)C)cc1Cl` (stereo not drawn), the Potency was inconclusive [inhibitor, partial curve].
With `Cc1ccc2c(c1)/C(=N/OS(=O)(=O)c1ccccc1)CCS2` the Potency was “inactive”.
In the case of `Cc1[nH]c2ccc3ccccc3c2c(=O)c1C/C=C/Cl`, the Potency is reported as “inactive”.
With `COc1ccc(/C=N/NC(=O)C(Cc2c[nH]c3ccccc23)NC(=O)OCC(C)C)cc1[N+](=O)[O-]` (stereo not drawn) the Potency was “inactive”.
In the case of `COc1cccc(Cn2c(=O)n(Cc3ccco3)c(=O)c3oc4ccccc4c32)c1`, the Potency is reported as active: 23.1 µM.
For `COCCNC(=O)c1cccc(OC2CCN(Cc3ccc(OC(F)F)cc3)CC2)c1`, the Potency was “inactive”.
In the case of `CCCCN(CC)CCNC(=O)Cn1cc2c(n1)-c1c(oc(C(=O)N3CCCC3)c1C)CC2`, the Potency is reported as inconclusive [inhibitor, single point].
In the case of `O=C(Nc1ccc(OC(F)F)cc1)c1cc(S(=O)(=O)N2CCOCC2)ccc1F`, the Potency is reported as inconclusive [inhibitor, single point].
With `COc1ccccc1OCCNC(=O)c1ccc(C)c(S(=O)(=O)N2CCOCC2)c1` the Potency was inconclusive [inhibitor, partial curve].
With `O=C(NCCCN1CCOCC1)c1cc2c(=O)[nH]c3ccccc3c2s1` the Potency was inconclusive [inhibitor, single point].
For `CCCCn1c2ccc(F)cc2c2nnc(NN)nc21`, the Potency was inconclusive [inhibitor, single point].
For `CN(C(=O)CSc1cn(CC(=O)N2CCOCC2)c2ccccc12)c1ccccc1`, the Potency was inconclusive [inhibitor, single point].
In the case of `Cc1c(Cl)cccc1N/C(=N/S(=O)(=O)c1cccs1)c1ccccc1`, the Potency is reported as inconclusive [inhibitor, single point].
For `O=c1[nH]c2cc3c(cc2cc1CN(Cc1cccs1)Cc1nnnn1Cc1ccco1)OCCO3`, the Potency was active: 16.4 µM.
For `O=c1[nH]nc(N/N=C/c2ccccc2OC(F)F)c(=O)[nH]1`, the Potency was “inactive”.
For `O=c1cc(CN2CCN(CCO)CC2)c2cc3c(cc2o1)CCC3`, the Potency was “inactive”.
With `Cc1cccc(NC(=O)c2cc(-c3cc(C)cc(C)c3O)n[nH]2)c1` the Potency was inconclusive [inhibitor, single point].
In the case of `Cc1cc(Br)ccc1NC(=S)Nc1cccc([N+](=O)[O-])c1`, the Potency is reported as inconclusive [inhibitor, single point].
For `CC(=O)CCc1ccc(OCCCCN2CCC(Cc3ccccc3)CC2)cc1`, the Potency was “inactive”.
In the case of `CCCOc1cccc(C(=O)N(Cc2ccc(C)o2)C2CCS(=O)(=O)C2)c1` (stereo not drawn), the Potency is reported as inconclusive [inhibitor, single point].
In the case of `O=C(NN1C(=O)c2ccccc2NC1c1ccccn1)c1ccccc1` (stereo not drawn), the Potency is reported as inconclusive [inhibitor, single point].
For `O=C(NCc1nc2ccccc2[nH]1)C1=C[C@H](c2coc3ccccc3c2=O)C[C@H](OCc2ccc(CO)cc2)O1`, the Potency was inconclusive [inhibitor, single point].
For `COc1ccc2[nH]c3c(=O)n4c(nc3c2c1)SCC4`, the Potency was “inactive”.
For `Cc1cc2nc(C(F)(F)F)cc(-c3cccs3)n2n1`, the Potency was “inactive”.
With `COC(=O)C1=NN(C(=O)c2ccccc2)C(O)(c2ccc([N+](=O)[O-])cc2)C1` (stereo not drawn) the Potency was “inactive”.
For `COc1cccc2sc(NC(=O)c3ccc(Br)s3)nc12`, the Potency was inconclusive [inhibitor, partial curve].
For `O=C(CCl)N1c2ccccc2Sc2ccc3ccccc3c21`, the Potency was active: 2.31 µM.
In the case of `Nn1c(SCC(=O)NCCCc2ccccc2)nnc1-c1cccnc1`, the Potency is reported as “inactive”.
In the case of `Clc1ccc(C2=Nn3c(nnc3-c3cccnc3)SC2)s1`, the Potency is reported as inconclusive [inhibitor, partial curve, poor fit].
In the case of `COc1ccc(-c2[nH]ncc2CN2CCN(C(=O)c3ccco3)CC2)cc1F`, the Potency is reported as inconclusive [inhibitor, single point].
In the case of `CC(C)C(=O)Nc1nc2cc3c(cc2s1)OCO3`, the Potency is reported as active: 4.61 µM.
With `CCN(CC)S(=O)(=O)c1ccc(OC)c(NC(=O)c2ccc3c(c2)OCO3)c1` the Potency was inconclusive [inhibitor, single point].
For `Cc1cccc(C)c1OCCCN1CCOCC1`, the Potency was “inactive”.
For `CCOC(=O)c1ccccc1NC(=O)COC(=O)C(CCSC)NC(=O)COc1ccccc1` (stereo not drawn), the Potency was “inactive”.
In the case of `CCOC(=O)c1ccccc1OCc1cc(/C=N/n2cnnc2)ccc1OC`, the Potency is reported as inconclusive [inhibitor, single point].
With `Cc1nn2c(c1-c1ccc(Cl)cc1)N=C(c1ccco1)CC2c1ccccc1` (stereo not drawn) the Potency was inconclusive [inhibitor, single point].
For `COc1cc(NC(=O)CC2C(=O)N(c3cccc(C)c3)C(=O)N2Cc2ccc(F)cc2)cc(OC)c1` (stereo not drawn), the Potency was active: 20.6 µM.
